# Data: the supplement of paper PMC8728848
# The other results are listed elsewhere or left out.
# Tests used:
# Test in all cases: glycan array binding signal (z-score within array); higher = stronger binding
# Details in all cases: glycan notation: IUPAC condensed, linker removed
# [1] = target: Fuc(a1-2)Gal
# Outline: (§1)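 Glycan array data were curated from 3228 arrays in the Consortium for Functional Glycomics database and kept only where the protein sequence was available. Glycan names were converted to IUPAC-condensed notation, and columns mapping to the same glycan were averaged. The binding signal is a within-array Z-score, averaged across arrays of the same protein sequence at different concentrations or buffers and across linkers. Negative Z-scores can be read as non-binding.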
# [2] = target: Fuc(a1-2)Gal(b1-3)GalNAc
# Outline: as §1
# [3] = target: Fuc(a1-2)Gal(b1-3)GalNAc(a1-3)[Fuc(a1-2)]Gal(b1-4)Glc
# Outline: as §1
# [4] = target: Fuc(a1-2)Gal(b1-3)GalNAc(a1-3)[Fuc(a1-2)]Gal(b1-4)GlcNAc
# Outline: as §1
# [5] = target: Fuc(a1-2)Gal(b1-3)GalNAc(b1-3)Gal
# Outline: as §1
# [6] = target: Fuc(a1-2)Gal(b1-3)GalNAc(b1-3)Gal(a1-4)Gal(b1-4)Glc
# Outline: as §1
# [7] = target: Fuc(a1-2)Gal(b1-3)GalNAc(b1-4)[Neu5Ac(a2-3)]Gal(b1-4)Glc
# Outline: as §1
# [8] = target: Fuc(a1-2)Gal(b1-3)GlcNAc
# Outline: as §1
# [9] = target: Fuc(a1-2)Gal(b1-3)GlcNAc(b1-2)Man(a1-3)[Fuc(a1-2)Gal(b1-3)GlcNAc(b1-2)Man(a1-6)]Man(b1-4)GlcNAc(b1-4)GlcNAc
# Outline: as §1
# [10] = target: Fuc(a1-2)Gal(b1-3)GlcNAc(b1-2)Man(a1-3)[Fuc(a1-2)Gal(b1-3)GlcNAc(b1-2)Man(a1-6)]Man(b1-4)GlcNAc(b1-4)[Fuc(a1-6)]GlcNAc
# Outline: as §1
# [11] = target: Fuc(a1-2)Gal(b1-3)GlcNAc(b1-3)Gal(b1-4)Glc
# Outline: as §1
# [12] = target: Fuc(a1-2)Gal(b1-3)GlcNAc(b1-3)GalNAc
# Outline: as §1
# [13] = target: Fuc(a1-2)Gal(b1-3)GlcNAc(b1-3)[Fuc(a1-3)[Gal(b1-4)]GlcNAc(b1-6)]Gal(b1-4)Glc
# Outline: as §1
# [14] = target: Fuc(a1-2)Gal(b1-3)GlcNAc(b1-3)[Gal(b1-4)GlcNAc(b1-6)]Gal(b1-4)Glc
# Outline: as §1
# [15] = target: Fuc(a1-2)Gal(b1-3)[Fuc(a1-4)]GlcNAc
# Outline: as §1
# [16] = target: Fuc(a1-2)Gal(b1-3)[Fuc(a1-4)]GlcNAc(b1-2)Man(a1-3)[Fuc(a1-2)Gal(b1-3)[Fuc(a1-4)]GlcNAc(b1-2)Man(a1-6)]Man(b1-4)GlcNAc(b1-4)GlcNAc
# Outline: as §1
# [17] = target: Fuc(a1-2)Gal(b1-3)[Fuc(a1-4)]GlcNAc(b1-3)[Fuc(a1-3)[Gal(b1-4)]GlcNAc(b1-6)]Gal(b1-4)Glc
# Outline: as §1
# [18] = target: Fuc(a1-2)Gal(b1-3)[Fuc(a1-4)]GlcNAc(b1-3)[Gal(b1-4)GlcNAc(b1-6)]Gal(b1-4)Glc
# Outline: as §1
# [19] = target: Fuc(a1-2)Gal(b1-4)Glc
# Outline: as §1
# [20] = target: Fuc(a1-2)Gal(b1-4)Glc6S
# Outline: as §1
# [21] = target: Fuc(a1-2)Gal(b1-4)GlcNAc
# Outline: as §1
# [22] = target: Fuc(a1-2)Gal(b1-4)GlcNAc(b1-2)Man(a1-3)[Fuc(a1-2)Gal(b1-4)GlcNAc(b1-2)Man(a1-6)]Man(b1-4)GlcNAc(b1-4)GlcNAc
# Outline: as §1
# [23] = target: Fuc(a1-2)Gal(b1-4)GlcNAc(b1-2)Man(a1-3)[Fuc(a1-2)Gal(b1-4)GlcNAc(b1-2)Man(a1-6)]Man(b1-4)GlcNAc(b1-4)[Fuc(a1-6)]GlcNAc
# Outline: as §1
# [24] = target: Fuc(a1-2)Gal(b1-4)GlcNAc(b1-2)[Fuc(a1-2)Gal(b1-4)GlcNAc(b1-4)]Man(a1-3)[Fuc(a1-2)Gal(b1-4)GlcNAc(b1-2)Man(a1-6)]Man(b1-4)GlcNAc(b1-4)GlcNAc
# Outline: as §1
# [25] = target: Fuc(a1-2)Gal(b1-4)GlcNAc(b1-3)Gal(b1-4)GlcNAc
# Outline: as §1
# [26] = target: Fuc(a1-2)Gal(b1-4)GlcNAc(b1-3)Gal(b1-4)GlcNAc(b1-3)Gal(b1-4)GlcNAc
# Outline: as §1
# [27] = target: Fuc(a1-2)Gal(b1-4)GlcNAc(b1-3)GalNAc
# Outline: as §1
# [28] = target: Fuc(a1-2)Gal(b1-4)GlcNAc6S
# Outline: as §1
# [29] = target: Fuc(a1-2)Gal(b1-4)[Fuc(a1-3)]GlcNAc
# Outline: as §1
# [30] = target: Fuc(a1-2)Gal(b1-4)[Fuc(a1-3)]GlcNAc(b1-2)Man(a1-3)[Fuc(a1-2)Gal(b1-4)[Fuc(a1-3)]GlcNAc(b1-2)Man(a1-6)]Man(b1-4)GlcNAc(b1-4)GlcNAc
# Outline: as §1
binder,measurement,setting,value
"LSectin (Mus musculus), Q8BNX1 (protein) MNTGEYNKLGSAIEEVSRGQLGRWECYKQRLFFLVLALLVATVLWALILSTLLSSASSKLRVLLSHQDLLRTNASEQKMTLSSLKDDIGACRNCCSVTKAQLQTTLAEFKDIQAKLMEQESILKELQERVTQDLAKASRDRENIRSELFQALEAVKRQNSSCEQCPPSWLPFQGSCYYFSETQATWDTAQSYCGGQGAHLVIVRGLNEQGFLSQHTRGRGYWLGLRAVRHLNKIQGYRWVDGASLNFSHWNSGEPNDSRGHEDCIMMLHSGLWNDAPCTNERDGWICEKRSSCY",glycan array binding signal (z-score),[1],-0.138
same,glycan array binding signal (z-score),[2],-0.177
same,glycan array binding signal (z-score),[3],-0.185
same,glycan array binding signal (z-score),[4],-0.194
same,glycan array binding signal (z-score),[5],-0.179
same,glycan array binding signal (z-score),[6],-0.169
same,glycan array binding signal (z-score),[7],-0.184
same,glycan array binding signal (z-score),[8],-0.144
same,glycan array binding signal (z-score),[9],-0.18
same,glycan array binding signal (z-score),[10],-0.184
same,glycan array binding signal (z-score),[11],-0.18
same,glycan array binding signal (z-score),[12],-0.188
same,glycan array binding signal (z-score),[13],-0.187
same,glycan array binding signal (z-score),[14],-0.188
same,glycan array binding signal (z-score),[15],-0.15
same,glycan array binding signal (z-score),[16],-0.176
same,glycan array binding signal (z-score),[17],-0.174
same,glycan array binding signal (z-score),[18],-0.181
same,glycan array binding signal (z-score),[19],0.275
same,glycan array binding signal (z-score),[20],-0.138
same,glycan array binding signal (z-score),[21],0.28
same,glycan array binding signal (z-score),[22],2.71
same,glycan array binding signal (z-score),[23],-0.19
same,glycan array binding signal (z-score),[24],0.645
same,glycan array binding signal (z-score),[25],0.829
same,glycan array binding signal (z-score),[26],0.857
same,glycan array binding signal (z-score),[27],0.092
same,glycan array binding signal (z-score),[28],-0.146
same,glycan array binding signal (z-score),[29],0.063
same,glycan array binding signal (z-score),[30],0.42
